“And” between values parts separate entries of the source, which are not always exact repeats. Identical values can stand only once. About 550 (0.42%) of roughly 130,000 compounds were called active. Inconclusive means that the source gave no clear call. Such entries were picked first, then a sample of the others. The call rests on the fitted dose curve; in most records, active means well fitted inhibition curve with a large enough effect; inconclusive means small, poorly fitted or top-dose-only effect, or effect the other way; inactive means flat fitted curve, though single readings scatter. Potencies of inconclusive entries are doubtful fits and often do not repeat. Some structures have more than one record in an assay (separate samples or runs), and their calls can disagree.
test: qHTS Assay for Inhibitors of the ERK Signaling Pathway using a Homogeneous Screening Assay; Stimulation with EGF; settings: HEK293-V1b, EGF-stimulated phospho-ERK AlphaScreen; activity change, negative = inhibition: at the top concentration; further: nearly all actives have a fitted effect of over 55% in size;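 on activity change, negative = inhibition: plate controls were stimulated vehicle wells for no effect and unstimulated vehicle basal for full effect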
Procedure, shortened: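 EGF-stimulated (25 nM, 5 min) phospho-ERK in HEK293 cells stably expressing V1b, cells pretreated 30 min with compound at 37C. Homogeneous AlphaScreen read on lysates.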
Potency means the concentration at half of the fitted maximal effect; tags describe the fitted curve by direction and shape.

| SMILES | Potency | activity change, negative = inhibition |
| --- | --- | --- |
| CC1(C)C(=O)[C@@H]2OC2[C@@]2(C)C1CC(O)[C@]1(C)C2CC[C@@]2(C)C(c3ccoc3)OC(=O)C3OC312 (some centres undefined) | inconclusive: 0.112 µM [activator, full curve, poor fit] |  |
| O=c1c(O)c(-c2ccc(O)c(O)c2)oc2c(O)c(O)cc(O)c12 |  | inactive: -0.529% |
| O=C(O)[C@H]1[C@H]2CN[C@H](C(=O)O)[C@H]21 |  | inactive: -4.1% |
| O=C1NC(=O)N(Cc2ccco2)C(=O)/C1=C/C=C/c1ccco1 | inconclusive: 39.8 µM [inhibitor, single point] |  |
| NCC(=O)c1ccccc1 |  | inactive: 20.9% |
| C[C@]12CC[C@@H]3c4ccc(O)c(O)c4CC[C@H]3[C@@H]1CC[C@@H]2O | inconclusive: 8.91 µM [inhibitor, single point] |  |
| c1ccc(-c2ccc(-c3n(-c4ccccn4)c4ccccc4[n+]3-c3ccccn3)cc2)cc1 | inconclusive: 28.2 µM [inhibitor, partial curve] |  |
| COc1cc2c(cc1OC)[C@@H]1C(=O)c3ccc(OC)c(CC=C(C)C)c3OC1CO2 (some centres undefined) |  | inactive: 21.1% |
| Cc1cc(O)c2c(c1)C(=O)c1cc(O)cc(O)c1C2=O | inconclusive: 11.2 µM [inhibitor, partial curve] |  |
| COC(=O)C1(C)C=C2C(=C(C)C(=O)C2C)CN1 (centres undefined) |  | inactive: 3.41% |
| COc1ccc(Cn2c(O)c(/C=C3/C=CC=N3)c(=O)[nH]c2=O)cc1 | inconclusive: 3.55 µM [inhibitor, partial curve, poor fit] |  |
| N[C@H](CCP(=O)(O)O)C(=O)O | inactive |  |
| C=C(CO)CC1CC(O)[C@]2(C)OC3CC4OC5C[C@]6(C)O[C@]7(C)CCC8OC9C[C@]%10(C)OC%11C(C)=CC(=O)OC%11CC%10OC9C[C@@H](C)C8OC7CC6O[C@]5(C)C/C=C\C4OC3CC2O1 (some centres undefined) |  | inactive: -17.2% [at 57.5 µM] |
| CCOc1ccc(-n2c(-c3cccs3)nc3ccccc3c2=O)cc1 | inconclusive: 28.2 µM [inhibitor, partial curve] |  |
| NC(Cc1ccc(N(CCCl)CCCl)cc1)C(=O)O (centres undefined) | inactive |  |
| CCC(C)N1C(=O)/C(=C\c2cnc(N(C)C)nc2)C(=O)NC1=S (centres undefined) |  | inactive: -10.2% |
| CN(C)c1ccc(C(O)P(=O)(OCc2ccccc2)c2ccc(N(C)C)cc2)cc1 (centres undefined) | inconclusive: 12.6 µM [inhibitor, partial curve] |  |

| SMILES | Potency | activity change, negative = inhibition |
| --- | --- | --- |
| O=C(O)CNC(=O)[C@@H](CS)Cc1ccccc1 | inconclusive: 15.8 µM [activator, single point] |  |
| C=C1C2C[C@]3(C4CC5[C@@]6(C)CC[C@H](O)[C@@]5(C3CC2=O)C4[N+]([O-])(CC)C6)[C@@H]1O (some centres undefined) |  | inactive: -1.3% |
| O=C1NC(=O)C(=Cc2ccc(SC3CCCCC3)o2)C(=O)N1 | inconclusive: 39.8 µM [inhibitor, single point] |  |
| CC(CCc1ccccc1)NCCC#N (centres undefined) |  | inactive: -4.46% [at 57.5 µM] |
| C#CCN(C)[C@H](C)Cc1ccccc1 | inconclusive: 10 µM [inhibitor, partial curve] |  |
| CCCSc1ccc2nc(NC(=O)OC)[nH]c2c1 | inconclusive: 39.8 µM [inhibitor, single point] |  |
| NC(Cc1ccccc1)c1nc(-c2ccccc2)no1 (centres undefined) |  | inactive: -12.5% [at 57.5 µM] |
| Cc1cc2c(C(C)C)c(O)c(O)c(C=O)c2c(O)c1-c1c(C)cc2c(C(C)C)c(O)c(O)c(C=O)c2c1O | inconclusive: 28.2 µM [inhibitor, single point] and inconclusive: 39.8 µM [inhibitor, partial curve, poor fit] and inconclusive: 35.5 µM [inhibitor, single point] |  |
| CC(=O)[O][Hg][c]1ccccc1 | active: 14.1 µM |  |
| O=c1[nH]c2ccccc2n1C1CCN(CCCC(c2ccc(F)cc2)c2ccc(F)cc2)CC1 | inactive and active: 25.1 µM |  |
| CC(C)c1ccc2c(c1O)CCC1C3=C(CC[C@]21C)C(=O)OC3 (some centres undefined) |  | inactive: 19.8% |
| CCOc1ccc(-c2c(C)n(-c3ccc(OCC)cc3)c3[n+]2CCCCC3)cc1 | inconclusive: 15.8 µM [inhibitor, partial curve, poor fit] |  |
| O=C1NC(=O)N(Cc2ccc(F)cc2)C(=O)/C1=C\C=C\c1ccco1 | inconclusive: 39.8 µM [inhibitor, single point] |  |
| O[C@H]1CCCC[C@H]1N1CCC(c2ccccc2)CC1 | inactive |  |
| CCN(CC)c1ccc(CNc2nc3ccccc3n2C)cc1 | inconclusive: 39.8 µM [inhibitor, single point] |  |
| CC(C)c1ccc(N2C(=O)NC(=O)/C(=C/C=C/c3ccco3)C2=O)cc1 |  | inactive: -1.02% |
| CN1C2c3ccccc3C3C4c5ccccc5C(C31)C(C2[N+](=O)[O-])N4C (centres undefined) | inconclusive: 12.6 µM [inhibitor, partial curve] |  |
